Results taken from the supplement of paper PMC10369915.
The list shows a part of the results. Rule as the data show it: active = 3.2 or more and inactive = the rest. Only a few entries rise above the background.

How the values were obtained:
Experiment in all cases: enrichment score (SH2-bound / input frequency) (ratio); bacterial display of known human phosphotyrosine sites (pTyr-Var adds point mutants) read by sequencing; higher = stronger binding; tyrosines were phosphorylated by kinases first
Conditions in all cases: peptide library: pTyr-Var
[1] = target: SHP2 C-SH2 domain E139D
[2] = target: SHP2 C-SH2 domain wild-type
[3] = target: SHP2 N-SH2 domain L43F
[4] = target: SHP2 N-SH2 domain T42A
[5] = target: SHP2 N-SH2 domain T52S
[6] = target: SHP2 N-SH2 domain wild-type
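Also: displayed peptides selected on beads carrying the immobilized SH2 domain, with library peptides lacking any tyrosine serving as negative controls.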

Binder	enrichment score [1]	enrichment score [2]	enrichment score [3]	enrichment score [4]	enrichment score [5]	enrichment score [6]
YRQNVYIPGSN [PCDHGA1_Y895]	inactive: 0.7	inactive: 0.574	inactive: 0.631	inactive: 0.555	inactive: 0.652	inactive: 0.799
NFATLYLKIYH [PDE6B_Y219]	inactive: 1.75	inactive: 1.65	inactive: 2.08	inactive: 2.55	inactive: 2.12	inactive: 2.07
EAVKNYTDKRG [PBRM1_Y672]	inactive: 0.561	inactive: 0.668	inactive: 0.673	inactive: 0.546	inactive: 0.555	inactive: 0.732
LSGFGYRLSDQ [PDCD6_Y124]	inactive: 1.29	inactive: 0.939	inactive: 1.18	inactive: 1.4	inactive: 1.2	inactive: 1.29
IPTPAYQSLPA [PDCD6IP_Y727_S730L]	inactive: 0.895	inactive: 0.702	inactive: 0.736	inactive: 0.639	inactive: 0.795	inactive: 0.815
KNKELYSDLFD [PDE10A_Y300]	inactive: 1.13	inactive: 0.724	inactive: 0.858	inactive: 1.03	inactive: 0.75	inactive: 0.838
EKESCYILHSS [PATJ_Y783_E779K]	inactive: 0.861	inactive: 1.22	inactive: 0.923	inactive: 0.905	inactive: 1.06	inactive: 1.51
FSKRIYKGMVA [PCDH15_Y931]	inactive: 0.764	inactive: 0.597	inactive: 0.51	inactive: 0.585	inactive: 0.66	inactive: 0.663
KILGTYFETGS [PAX2_Y72_R71T_YF]	inactive: 1.17	inactive: 1.25	inactive: 1.08	inactive: 1.06	inactive: 0.952	inactive: 1.38
LINLKYSVEEE [PCDH19_Y27]	inactive: 1.67	inactive: 0.923	inactive: 1.28	inactive: 1.51	inactive: 1.59	inactive: 1.33
HILRVYGGVLP [PCNX4_Y999]	inactive: 1.69	inactive: 1.58	inactive: 2.1	inactive: 1.23	inactive: 2.15	inactive: 1.55
LCHELYNTIRD [PBRM1_Y54_V49L]	inactive: 1.42	inactive: 0.715	inactive: 0.722	inactive: 0.713	inactive: 0.937	inactive: 0.883
NFATLYLKIFH [PDE6B_Y219_YF]	inactive: 2.17	inactive: 2.36	inactive: 2.05	inactive: 3.05	inactive: 1.87	inactive: 2.07
ILGRYYETGSI [PAX2_Y73]	inactive: 1.07	inactive: 0.918	inactive: 0.982	inactive: 1.04	inactive: 0.947	inactive: 1.01
FHKALYTVRTY [PDE6C_Y266_S270T]	inactive: 0.681	inactive: 0.689	inactive: 0.628	inactive: 0.714	inactive: 0.61	inactive: 0.904
FQRITYHNWRH [PDE6B_Y556_R552Q_YF]	active: 3.98	active: 3.89	active: 3.8	active: 3.31	active: 4.41	active: 3.82
LSGFCYRLSDQ [PDCD6_Y124_G123C]	inactive: 0.839	inactive: 0.92	inactive: 0.669	inactive: 0.828	inactive: 0.902	inactive: 1.16
KILGRYFETGS [PAX2_Y72_YF]	inactive: 1.26	inactive: 1.35	inactive: 1.15	inactive: 1.46	inactive: 1.09	inactive: 1.23
VECRVYAEDPF [PCCA_Y401_YF]	inactive: 0.721	inactive: 0.933	inactive: 1.06	inactive: 0.695	inactive: 0.69	inactive: 1.15

Binder	enrichment score [1]	enrichment score [2]	enrichment score [3]	enrichment score [4]	enrichment score [5]	enrichment score [6]
FHLLPYTVRAM [PARS2_Y93_YF]	inactive: 1.92	inactive: 1.75	inactive: 1.92	inactive: 1.98	inactive: 2.12	inactive: 2.02
LHSEAYLKFIE [PBRM1_Y1610_YF]	inactive: 1.28	inactive: 1.7	inactive: 1.55	inactive: 1.15	inactive: 1.06	inactive: 1.38
EASGIYVKSII [PATJ_Y396]	inactive: 0.507	inactive: 0.601	inactive: 0.548	inactive: 0.57	inactive: 0.565	inactive: 0.678
HILRVYSGVLP [PCNX4_Y999_G1000S]	inactive: 1.42	inactive: 1.41	inactive: 2.29	inactive: 1.27	inactive: 2.13	inactive: 1.83
ILGRFYETGSI [PAX2_Y73_YF]	inactive: 1.3	inactive: 1.12	inactive: 1.91	inactive: 1.19	inactive: 1.86	inactive: 1.13
VDDEIYYFRKP [PBRM1_Y1289]	inactive: 0.784	inactive: 0.932	inactive: 0.763	inactive: 0.565	inactive: 0.66	inactive: 0.873
LINPKYSVEEE [PCDH19_Y27_L25P]	inactive: 0.852	inactive: 1.16	inactive: 0.509	inactive: 0.866	inactive: 1.41	inactive: 1.16
DALDNYVIRGV [PCCA_Y473]	inactive: 0.925	inactive: 0.869	inactive: 0.89	inactive: 0.87	inactive: 0.946	inactive: 0.806
NFATLHLKIYH [PDE6B_Y219_Y219H]	inactive: 3.17	active: 3.33	inactive: 2.82	inactive: 2.38	inactive: 2.86	inactive: 2.62
VECQVYAEDPY [PCCA_Y401_R399Q]	inactive: 0.888	inactive: 1.28	inactive: 1.17	inactive: 0.988	inactive: 0.774	inactive: 1.62
KILGRYFETSS [PAX2_Y72_G76S_YF]	inactive: 1.26	inactive: 1.25	inactive: 1.11	inactive: 1.54	inactive: 1.47	inactive: 1.27
IPGRFYETGSI [PAX2_Y73_L69P_YF]	inactive: 0.975	inactive: 0.96	inactive: 1.02	inactive: 0.79	inactive: 1.18	inactive: 1.03
VCHELYNAIRD [PBRM1_Y54_T56A]	inactive: 1.08	inactive: 1.1	inactive: 1.12	inactive: 0.825	inactive: 1.04	inactive: 1.39
IYHLSYHHNCE [PDE6B_Y227_L228H]	inactive: 2.07	inactive: 2.1	inactive: 2.33	inactive: 2.06	inactive: 1.95	inactive: 2.27
KIPGRYYETGS [PAX2_Y72_L69P]	inactive: 0.872	inactive: 0.756	inactive: 1.04	inactive: 0.806	inactive: 0.973	inactive: 0.889
VECRVYAEDPY [PCCA_Y401]	inactive: 0.892	inactive: 1.28	inactive: 0.799	inactive: 0.843	inactive: 0.842	inactive: 1.26
EEKSCYILHSS [PATJ_Y783_E780K]	inactive: 0.98	inactive: 0.974	inactive: 1.06	inactive: 0.95	inactive: 0.762	inactive: 1.11
DALDNYVVRGV [PCCA_Y473_I475V]	inactive: 0.712	inactive: 0.716	inactive: 0.772	inactive: 0.701	inactive: 0.822	inactive: 0.717
